Measurements taken from the supplement of paper PMC3334620.
The full ranking holds about 33,000 sequences; the median of “E-score (-0.5 to 0.5)” is about -0.043, and the highest 2% start at about 0.37. This is one part of the list.

Target: T1, Upc2 (UniProt Q12151)
T1 sequence: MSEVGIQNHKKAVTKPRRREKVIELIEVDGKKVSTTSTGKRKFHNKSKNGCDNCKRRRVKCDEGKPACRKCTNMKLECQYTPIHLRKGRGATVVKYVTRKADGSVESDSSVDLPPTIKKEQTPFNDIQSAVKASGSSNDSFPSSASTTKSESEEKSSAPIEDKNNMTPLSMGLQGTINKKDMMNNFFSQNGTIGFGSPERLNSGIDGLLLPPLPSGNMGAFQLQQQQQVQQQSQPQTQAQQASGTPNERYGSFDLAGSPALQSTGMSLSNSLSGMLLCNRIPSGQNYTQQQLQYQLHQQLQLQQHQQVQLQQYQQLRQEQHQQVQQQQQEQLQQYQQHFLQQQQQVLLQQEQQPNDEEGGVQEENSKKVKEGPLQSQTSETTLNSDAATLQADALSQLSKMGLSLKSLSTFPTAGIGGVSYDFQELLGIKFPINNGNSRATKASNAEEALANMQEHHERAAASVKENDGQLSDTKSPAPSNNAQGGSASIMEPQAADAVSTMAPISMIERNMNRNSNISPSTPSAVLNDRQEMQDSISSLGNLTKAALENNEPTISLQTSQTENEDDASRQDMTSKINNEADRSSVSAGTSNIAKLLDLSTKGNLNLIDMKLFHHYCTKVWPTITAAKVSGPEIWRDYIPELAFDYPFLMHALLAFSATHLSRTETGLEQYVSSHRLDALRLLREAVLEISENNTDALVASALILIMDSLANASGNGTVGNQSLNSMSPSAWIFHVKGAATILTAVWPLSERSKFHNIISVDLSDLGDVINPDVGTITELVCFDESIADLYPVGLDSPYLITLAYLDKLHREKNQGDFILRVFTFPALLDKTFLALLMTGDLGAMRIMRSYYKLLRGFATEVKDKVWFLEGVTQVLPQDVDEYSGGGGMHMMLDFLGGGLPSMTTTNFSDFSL
Experiment: PBM E-score (8-mer binding enrichment) (E-score (-0.5 to 0.5)); higher = stronger / more preferred TF binding; most listed sequences are background and not binding sites
Settings: protein concentration: 200 nM; construct: GST-full length
Outline: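 For each ungapped eight-base word taken together with its reverse complement, the Universal PBM Analysis Suite assigned an E-score. Binding data came from GST-tagged yeast transcription factors, applied at about 100-200 nM, on universal all-10-mer Agilent arrays made double-stranded by primer extension. Fluorescent anti-GST marked bound protein, and scans were normalised with masliner.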

Compared with GGTGACTA, CCTGATGC is lower in “PBM E-score” value: -0.0935 for the first, -0.111 for the second.

First: AACCCATT
Second: CCCCGCAG
The “PBM E-score” value of the first is higher: -0.0446 for the first, -0.11 for the second.

First: CCTCTATA
Second: ACGAAAAA
The “PBM E-score” value of the first is lower: -0.0193 for the first, 0.262 for the second.

First: CCGGCACG
Second: GGGTCCCA
The “PBM E-score” value of the first is higher: 0.0245 for the first, -0.0876 for the second.

Compared with CGGCTAAG, AAAGCTAG is lower in “PBM E-score” value: -0.099 for the first, -0.172 for the second.

Going from CTCGAGGC to CGAAGCCC, the “PBM E-score” value rises from -0.0827 to 0.0445.

Going from GGCCACAA to AAGCAGTG, the “PBM E-score” value falls from -0.151 to -0.25.

First: GAAACGGA
Second: CGCAGGCC
The “PBM E-score” value of the first is higher: 0.199 for the first, -0.148 for the second.

Compared with CGCAGCGA, CGCGCGTC is higher in “PBM E-score” value: 0.0366 for the first, 0.116 for the second.

First: ATTGTCGC
Second: ATATGAGG
The “PBM E-score” value of the first is higher: -0.0879 for the first, -0.253 for the second.

Going from AACGCGTG to CTTCCTCC, the “PBM E-score” value falls from 0.179 to -0.22.

First: AGGTTCAG
Second: CTTAAAAA
The “PBM E-score” value of the first is lower: -0.0682 for the first, 0.0534 for the second.

First: AAGTCACC
Second: CTAAGCTA
The “PBM E-score” value of the first is lower: -0.0173 for the first, 0.015 for the second.

Going from ACTGCTCC to AGTCGGGC, the “PBM E-score” value rises from -0.196 to 0.0212.

First: GGAGCTGA
Second: CATGGACG
The “PBM E-score” value of the first is lower: -0.206 for the first, -0.144 for the second.

Going from CGCGCCGC to CTGTGCCA, the “PBM E-score” value falls from -0.129 to -0.224.

Going from CGCTCCCG to ACCAACCC, the “PBM E-score” value falls from 0.208 to -0.0466.

First: ACGTCGGA
Second: ACAGCTGA
The “PBM E-score” value of the first is higher: 0.0678 for the first, -0.154 for the second.

Compared with AGAATTAT, CGAAATCG is higher in “PBM E-score” value: -0.0708 for the first, 0.0818 for the second.

Compared with CTTAGATC, CTGAACAA is higher in “PBM E-score” value: -0.0871 for the first, 0.115 for the second.

Compared with CCTCCGAG, TGCAAGAA is lower in “PBM E-score” value: -0.0728 for the first, -0.0985 for the second.

Going from GAATGGAA to GGATCGGA, the “PBM E-score” value rises from -0.0173 to 0.0439.

Going from AAGGGTAA to GATGGTCA, the “PBM E-score” value falls from -0.11 to -0.204.

First: AAATCAGG
Second: CCAGAGGA
The “PBM E-score” value of the first is higher: -0.118 for the first, -0.256 for the second.

Going from ACACGAGG to CCGAACGC, the “PBM E-score” value falls from 0.248 to 0.0534.

First: CTGCTAAA
Second: GCGGGACA
The “PBM E-score” value of the first is higher: -0.0352 for the first, -0.109 for the second.

First: AGTTACAT
Second: CGTGGCGC
The “PBM E-score” value of the first is lower: -0.223 for the first, -0.0595 for the second.

Going from AGCGTCTG to ACCCTTAG, the “PBM E-score” value falls from -0.0504 to -0.238.

Compared with TATTCAGA, ATCGTTCC is higher in “PBM E-score” value: -0.00637 for the first, 0.43 for the second.

Going from AAACGTAA to ATATCACA, the “PBM E-score” value falls from 0.226 to -0.0617.

First: AGATGGTA
Second: CAAGGGAC
The “PBM E-score” value of the first is higher: 0.00604 for the first, -0.365 for the second.

First: CACGGGTA
Second: ACCGTGCT
The “PBM E-score” value of the first is higher: -0.0321 for the first, -0.178 for the second.

First: GGACCGCC
Second: CGCTCGAC
The “PBM E-score” value of the first is lower: -0.147 for the first, -0.0799 for the second.

First: TCGGATCA
Second: CTCCTGAC
The “PBM E-score” value of the first is higher: 0.112 for the first, -0.332 for the second.

Going from CAGGTATG to AGTATTGG, the “PBM E-score” value falls from -0.0943 to -0.176.

Compared with CAGTAAGG, CTTAGCGC is higher in “PBM E-score” value: -0.179 for the first, 0.126 for the second.

Going from AAACGAAT to AGAACGAC, the “PBM E-score” value falls from 0.451 to 0.391.

Going from AAAGTCAC to CCACATAG, the “PBM E-score” value falls from 0.0807 to -0.134.

First: TCACTACA
Second: CCCCCTAA
The “PBM E-score” value of the first is higher: -0.0635 for the first, -0.13 for the second.

First: AAAAAGCA
Second: GAGTTCAC
The “PBM E-score” value of the first is lower: -0.0159 for the first, 0.0452 for the second.

First: TACCAATA
Second: AAAGGATG
The “PBM E-score” value of the first is lower: -0.0536 for the first, -0.00713 for the second.

First: CAGCCAAG
Second: AACTGGGG
The “PBM E-score” value of the first is higher: -0.219 for the first, -0.272 for the second.

Compared with ATGTAACG, AAAGACAC is lower in “PBM E-score” value: 0.144 for the first, 0.0363 for the second.

Going from ATACTACC to CCCTTTCG, the “PBM E-score” value falls from 0.00202 to -0.0783.

Going from AACTTCAC to AGGCTAGC, the “PBM E-score” value falls from 0.157 to -0.192.

Compared with AGTTCTAG, AGTCATAG is lower in “PBM E-score” value: -0.155 for the first, -0.196 for the second.

Compared with TAAGAGAA, TGAACACA is lower in “PBM E-score” value: 0.138 for the first, 0.0855 for the second.

Compared with GATGGCTA, CGAACAAC is higher in “PBM E-score” value: -0.0762 for the first, 0.192 for the second.

Going from ATAATACA to CGTCAGCC, the “PBM E-score” value rises from 0.087 to 0.165.

First: GATGAACC
Second: ATAGTCCG
The “PBM E-score” value of the first is lower: -0.0786 for the first, 0.127 for the second.

Compared with GATGGGCC, ACCTAGGG is lower in “PBM E-score” value: -0.0304 for the first, -0.13 for the second.

First: CTTTCGAA
Second: ATAGGTAC
The “PBM E-score” value of the first is lower: -0.0138 for the first, 0.124 for the second.

First: AGACCATG
Second: GTTAGAGA
The “PBM E-score” value of the first is lower: -0.232 for the first, -0.129 for the second.

First: AATTCCCA
Second: CTCTACTC
The “PBM E-score” value of the first is higher: -0.0677 for the first, -0.154 for the second.

Compared with AAACTAGA, AGAACTTA is lower in “PBM E-score” value: -0.0238 for the first, -0.0298 for the second.

First: ACCGGTAA
Second: GTGTCGTA
The “PBM E-score” value of the first is lower: 0.0421 for the first, 0.44 for the second.

Compared with GAGGAGGA, CCCTGCCG is lower in “PBM E-score” value: -0.0195 for the first, -0.261 for the second.

Compared with AATTATTG, CTCTCAGA is lower in “PBM E-score” value: -0.0699 for the first, -0.282 for the second.

First: ACTCGTGG
Second: CAGATAAC
The “PBM E-score” value of the first is higher: 0.0117 for the first, -0.154 for the second.

Going from ACCGTTAG to AGCCAATG, the “PBM E-score” value falls from -0.062 to -0.164.

Going from AATATGAC to CCTATTAA, the “PBM E-score” value falls from -0.102 to -0.157.

Compared with AGAGAGGA, ATTTCTGC is higher in “PBM E-score” value: -0.196 for the first, 0.211 for the second.

First: CTTAAGCA
Second: GCCGTACA
The “PBM E-score” value of the first is lower: -0.14 for the first, 0.4 for the second.

First: CCCGCATA
Second: AAAGAGTT
The “PBM E-score” value of the first is higher: 0.169 for the first, -0.235 for the second.

Compared with AAACAACC, GTTAGAAA is lower in “PBM E-score” value: 0.0306 for the first, -0.0914 for the second.

Going from CCGCCAAC to GTGAGAAA, the “PBM E-score” value rises from -0.116 to -0.0421.

Going from CCACGGGG to AGACTGAA, the “PBM E-score” value rises from -0.232 to -0.0875.

Going from CCCGTTCG to ACCTCCAT, the “PBM E-score” value falls from 0.253 to -0.0728.

Going from AACTTGGT to AAAGTCCG, the “PBM E-score” value falls from 0.117 to -0.0381.

First: ACGCCTAG
Second: AAACGGTT
The “PBM E-score” value of the first is lower: 0.0201 for the first, 0.325 for the second.

First: CGGGTCAC
Second: CGTATCAG
The “PBM E-score” value of the first is lower: 0.0662 for the first, 0.381 for the second.

Compared with AGAATCGA, CACGAGAC is higher in “PBM E-score” value: -0.0184 for the first, 0.0139 for the second.

Compared with CCGAACTA, ATTCAGAG is lower in “PBM E-score” value: -0.0232 for the first, -0.152 for the second.

Compared with GTCGGTCA, CGGACAGA is lower in “PBM E-score” value: 0.213 for the first, 0.161 for the second.

Compared with GTGCGTCA, CAACTAGC is higher in “PBM E-score” value: -0.262 for the first, 0.103 for the second.

First: CTTTTAAC
Second: GTGCCGTA
The “PBM E-score” value of the first is lower: 0.2 for the first, 0.344 for the second.

Going from GGTACGCA to TAGATTCA, the “PBM E-score” value falls from 0.252 to -0.00942.

First: CCCGGACA
Second: ATCCAGCC
The “PBM E-score” value of the first is higher: -0.0292 for the first, -0.128 for the second.

Compared with CTTATGTA, TAACGTAA is higher in “PBM E-score” value: -0.00714 for the first, 0.207 for the second.

Going from ACACGCGA to ATAAGCAA, the “PBM E-score” value falls from 0.156 to -0.126.

First: TGAGTACA
Second: AAGGCACT
The “PBM E-score” value of the first is higher: -0.135 for the first, -0.145 for the second.

Going from TGAGACAA to ATGCGGTG, the “PBM E-score” value falls from -0.156 to -0.185.

Going from CCTTGAAA to GAACCATA, the “PBM E-score” value falls from -0.0231 to -0.072.

Going from CTCATTAA to TCATTGGA, the “PBM E-score” value rises from -0.178 to -0.129.

Going from CCCTATGA to CCATTGCG, the “PBM E-score” value rises from -0.307 to -0.0582.

First: CCGGTAGC
Second: CTCAGTTA
The “PBM E-score” value of the first is lower: -0.307 for the first, -0.16 for the second.
